Results reported in the BET-seq Pho4 binding data (Le et al. 2018).
The list shows a part of the results. These are noisy estimates, calculated here from bound and input reads.

target: T1, Pho4 (S. cerevisiae) (UniProt P07270); experiment: relative binding free energy (BET-seq); higher = weaker binding; conditions: reference: library average
T1 sequence: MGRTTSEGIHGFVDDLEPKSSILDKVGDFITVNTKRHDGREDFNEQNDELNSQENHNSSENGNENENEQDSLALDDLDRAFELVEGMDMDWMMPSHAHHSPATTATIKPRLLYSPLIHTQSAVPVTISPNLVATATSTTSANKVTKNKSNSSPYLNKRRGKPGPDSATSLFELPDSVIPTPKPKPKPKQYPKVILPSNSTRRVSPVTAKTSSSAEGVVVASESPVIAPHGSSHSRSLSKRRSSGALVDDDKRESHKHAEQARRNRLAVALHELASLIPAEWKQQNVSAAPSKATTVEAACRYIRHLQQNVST

| Sequence | relative binding free energy |
| --- | --- |
| TACGGCACGTGAGGTT | 0.12 kcal/mol |
| ATTGTCACGTGACTAT | 0.22 kcal/mol |
| TGTTTCACGTGTTTGG | 0.26 kcal/mol |
| GTTGGCACGTGTGCAC | -0.02 kcal/mol |
| ATCTTCACGTGAGGAG | 0.44 kcal/mol |
| ATTGGCACGTGGTAAT | -0.06 kcal/mol |
| ATGATCACGTGTGGCG | 0.03 kcal/mol |
| TTGGTCACGTGCACTG | 0.09 kcal/mol |
| TGCCGCACGTGTTTTT | -0.05 kcal/mol |
| GCTTTCACGTGTATGA | 0.35 kcal/mol |
| AGGGACACGTGTGATG | 0.04 kcal/mol |
| GTGCTCACGTGAGTGC | 0.3 kcal/mol |
| TGTATCACGTGGGGGT | 0.05 kcal/mol |
| TTGAGCACGTGGTTCG | -0.04 kcal/mol |
| ATGTACACGTGGGATT | -0.15 kcal/mol |
| CTAAGCACGTGTTTTT | -0.05 kcal/mol |
| CTCTGCACGTGTAGGG | 0.02 kcal/mol |
| TGTTTCACGTGAGATG | 0.35 kcal/mol |
| TAGTTCACGTGTCGGT | 0.27 kcal/mol |
| TATGGCACGTGGAAAT | 0.09 kcal/mol |
| GGTTTCACGTGCGGAT | 0.27 kcal/mol |
| GCGTACACGTGGATGT | 0.1 kcal/mol |
| GTTTACACGTGGGTCT | 0.08 kcal/mol |

| Sequence | relative binding free energy |
| --- | --- |
| TGATACACGTGCTTTT | 0.01 kcal/mol |
| GGGAGCACGTGGAGAG | -0.08 kcal/mol |
| TACGTCACGTGTCTGT | 0.06 kcal/mol |
| CTAGGCACGTGGGGTC | -0.24 kcal/mol |
| TTGAACACGTGTTTTA | -0.03 kcal/mol |
| TTTTCCACGTGGTGTG | -0.04 kcal/mol |
| AGAGCCACGTGTGGTA | -0.07 kcal/mol |
| TATCGCACGTGTCTGG | -0.08 kcal/mol |
| TGTATCACGTGTATCT | -0.04 kcal/mol |
| TTTTTCACGTGAGGAG | 0.46 kcal/mol |
| GGTTTCACGTGTGTGT | 0.39 kcal/mol |
| GGTCACACGTGTGGAG | 0.07 kcal/mol |
| GTCTTCACGTGATTGT | 0.32 kcal/mol |
| TGAAGCACGTGGTGGG | -0.16 kcal/mol |
| GTACTCACGTGTTTAT | 0.28 kcal/mol |
| AGTTTCACGTGAATTT | 0.37 kcal/mol |
| ACTTGCACGTGTCGGG | 0.15 kcal/mol |
| GTGGCCACGTGGTGCA | -0.12 kcal/mol |
| AAGGGCACGTGCGTGG | -0.17 kcal/mol |
| AGGCGCACGTGTGGTG | -0.03 kcal/mol |
| TGCGGCACGTGTAGTA | -0.05 kcal/mol |
| CGTCGCACGTGTGTGT | -0.13 kcal/mol |
| GTAATCACGTGTAAGG | 0.23 kcal/mol |

| Sequence | relative binding free energy |
| --- | --- |
| CGGTTCACGTGGTTCG | 0.12 kcal/mol |
| TAGGCCACGTGCGGGT | -0.21 kcal/mol |
| CTGTTCACGTGTCGGT | 0.24 kcal/mol |
| GTTGACACGTGGGTAA | -0.12 kcal/mol |
| AGATCCACGTGGGTTT | -0.02 kcal/mol |
| GGCATCACGTGTAGTA | 0.18 kcal/mol |
| AGTAGCACGTGGAATT | 0.08 kcal/mol |
| GTTATCACGTGGTAAT | 0.06 kcal/mol |
| GGTGACACGTGTAGCA | 0.11 kcal/mol |
| AATTTCACGTGATATT | 0.26 kcal/mol |
| TAGGGCACGTGAGGGG | 0.16 kcal/mol |
| GTATTCACGTGATGTA | 0.38 kcal/mol |
| GCGGACACGTGGGGCT | -0.01 kcal/mol |
| TTGATCACGTGAGGGC | 0.43 kcal/mol |
| TTTATCACGTGGTCTG | 0.04 kcal/mol |
| TGGCTCACGTGTGGGG | 0.21 kcal/mol |
| GAGTGCACGTGCGGGG | 0.02 kcal/mol |
| GGTCGCACGTGCTGGG | 0.02 kcal/mol |
| GGTATCACGTGTCTTT | 0.28 kcal/mol |
| ATAGGCACGTGTTGTT | -0.09 kcal/mol |
| GGTGACACGTGGGTCG | -0.05 kcal/mol |
| AATGACACGTGTAGTG | 0 kcal/mol |
| GGTCGCACGTGGGTAA | -0.03 kcal/mol |

| Sequence | relative binding free energy |
| --- | --- |
| GTCGTCACGTGTTTGC | 0.12 kcal/mol |
| CTGGTCACGTGTATGC | 0.11 kcal/mol |
| TAATACACGTGGTTTT | 0.03 kcal/mol |
| CTCTGCACGTGTTTGG | -0.05 kcal/mol |
| TAAGGCACGTGTGCTA | -0.12 kcal/mol |
| GGTTGCACGTGGCGCG | 0.04 kcal/mol |
| AAGTGCACGTGCGAGT | -0.04 kcal/mol |
| GTAGGCACGTGGTCAT | -0.22 kcal/mol |
| GTGTACACGTGGAAAG | 0.13 kcal/mol |
| CGTGACACGTGGTCGG | -0.08 kcal/mol |
| GATTTCACGTGTGGCT | 0.33 kcal/mol |
| GAGAGCACGTGCCGGG | 0 kcal/mol |
| TGTCTCACGTGGTTTT | 0.32 kcal/mol |
| TCAGTCACGTGTGTAA | 0.06 kcal/mol |
| GGCATCACGTGGTGTA | 0.1 kcal/mol |
| AGTTTCACGTGGTTAC | 0.21 kcal/mol |
| GCATTCACGTGTGAGT | 0.36 kcal/mol |
| AGGGGCACGTGGTAGG | -0.17 kcal/mol |
| GGCGCCACGTGACGGT | 0.34 kcal/mol |
| GTTGCCACGTGTGAGT | 0.09 kcal/mol |
| GGACTCACGTGTTTTT | 0.42 kcal/mol |
| TTTAGCACGTGCTATG | -0.04 kcal/mol |
| GGTCTCACGTGTGTAA | 0.19 kcal/mol |

| Sequence | relative binding free energy |
| --- | --- |
| GGCGTCACGTGCATGG | -0.03 kcal/mol |
| GGGGGCACGTGCGTAG | -0.21 kcal/mol |
| TGTTCCACGTGAGGGG | 0.27 kcal/mol |
| ATGGACACGTGATTTT | 0.26 kcal/mol |
| CTTATCACGTGTGAGT | 0.18 kcal/mol |
| GTGGGCACGTGAATCT | 0.16 kcal/mol |
| AGTGACACGTGGCGGT | -0.02 kcal/mol |
| TTAGGCACGTGTGCGT | -0.11 kcal/mol |
| GTGAACACGTGGTAAG | 0.08 kcal/mol |
| TATTGCACGTGAGGGG | 0.08 kcal/mol |
| ATGTTCACGTGGTGTT | 0.25 kcal/mol |
| TGGGGCACGTGAGCGA | 0.01 kcal/mol |
| CTGGGCACGTGATATG | -0.24 kcal/mol |
| TACTACACGTGGTTGG | 0.03 kcal/mol |
| CGGCTCACGTGTGAGT | 0.35 kcal/mol |
| AGGGGCACGTGTTTAG | -0.06 kcal/mol |
| ATTATCACGTGTTTGT | 0.03 kcal/mol |
| GTACTCACGTGTTTGT | 0.18 kcal/mol |
| TTAAGCACGTGCGTGG | -0.29 kcal/mol |
| TTTCACACGTGCGTGT | 0.04 kcal/mol |
| GGGCTCACGTGTGCGA | 0.3 kcal/mol |
| GTGGCCACGTGGATAT | 0.12 kcal/mol |
| CTTGGCACGTGGTTAG | -0.2 kcal/mol |
